The supplement of paper PMC8728848
This is one part of the list.

How the values were obtained:
Assay in all cases: glycan array binding signal (z-score within array); higher = stronger binding
Details in all cases: glycan notation: IUPAC condensed, linker removed
[1] = target: Gal(a1-3)Gal
Method in brief: (§1)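 The Consortium for Functional Glycomics database supplied 3228 glycan arrays, of which those lacking an available protein sequence were dropped. The binding signal, a within-array Z-score, was averaged across arrays of the same protein sequence and across linkers. Negative scores can be read as non-binding.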

[2] = target: Gal(a1-3)Gal(b1-3)GlcNAc
Method in brief: as §1

[3] = target: Gal(a1-3)Gal(b1-4)Glc
Method in brief: as §1

[4] = target: Gal(a1-3)Gal(b1-4)GlcNAc
Method in brief: as §1

[5] = target: Gal(a1-3)Gal(b1-4)[Fuc(a1-3)]GlcNAc
Method in brief: as §1

[6] = target: Gal(a1-3)Gal(b1-4)[Fuc(a1-3)]GlcNAc(b1-2)Man(a1-3)[Gal(a1-3)Gal(b1-4)[Fuc(a1-3)]GlcNAc(b1-2)Man(a1-6)]Man(b1-4)GlcNAc(b1-4)GlcNAc
Method in brief: as §1

[7] = target: Gal(a1-3)GalNAc
Method in brief: as §1

[8] = target: Gal(a1-3)[Gal(a1-4)]Gal(b1-4)GlcNAc
Method in brief: as §1

[9] = target: Gal(a1-4)Gal(b1-4)Glc
Method in brief: as §1

[10] = target: Gal(a1-4)Gal(b1-4)GlcNAc
Method in brief: as §1

[11] = target: Gal(a1-4)Gal(b1-4)GlcNAc(b1-3)Gal(b1-4)Glc
Method in brief: as §1

[12] = target: Gal(a1-4)GlcNAc
Method in brief: as §1

[13] = target: Gal(a1-6)Glc
Method in brief: as §1

[14] = target: Gal(b1-2)Gal
Method in brief: as §1

[15] = target: Gal(b1-3)Gal
Method in brief: as §1

[16] = target: Gal(b1-3)Gal(b1-4)GlcNAc
Method in brief: as §1

[17] = target: Gal(b1-3)Gal(b1-4)GlcNAc(b1-2)Man(a1-3)[Gal(b1-3)Gal(b1-4)GlcNAc(b1-2)Man(a1-6)]Man(b1-4)GlcNAc(b1-4)GlcNAc
Method in brief: as §1

[18] = target: Gal(b1-3)GalNAc
Method in brief: as §1

[19] = target: Gal(b1-3)GalNAc(a1-3)[Fuc(a1-2)]Gal(b1-4)Glc
Method in brief: as §1

[20] = target: Gal(b1-3)GalNAc(a1-3)[Fuc(a1-2)]Gal(b1-4)GlcNAc
Method in brief: as §1

[21] = target: Gal(b1-3)GalNAc(b1-3)Gal(a1-4)Gal(b1-4)Glc
Method in brief: as §1

[22] = target: Gal(b1-3)GalNAc(b1-4)Gal(b1-4)Glc
Method in brief: as §1

[23] = target: Gal(b1-3)GalNAc(b1-4)[Neu5Ac(a2-3)]Gal(b1-4)Glc
Method in brief: as §1

[24] = target: Gal(b1-3)GlcNAc
Method in brief: as §1

[25] = target: Gal(b1-3)GlcNAc(b1-2)Man(a1-3)[Gal(b1-3)GlcNAc(b1-2)Man(a1-6)]Man(b1-4)GlcNAc(b1-4)GlcNAc
Method in brief: as §1

[26] = target: Gal(b1-3)GlcNAc(b1-2)Man(a1-3)[Gal(b1-3)GlcNAc(b1-2)Man(a1-6)]Man(b1-4)GlcNAc(b1-4)[Fuc(a1-6)]GlcNAc
Method in brief: as §1

[27] = target: Gal(b1-3)GlcNAc(b1-3)Gal(b1-3)GlcNAc
Method in brief: as §1

[28] = target: Gal(b1-3)GlcNAc(b1-3)Gal(b1-4)Glc
Method in brief: as §1

[29] = target: Gal(b1-3)GlcNAc(b1-3)Gal(b1-4)GlcNAc
Method in brief: as §1

[30] = target: Gal(b1-3)[Fuc(a1-4)]GlcNAc
Method in brief: as §1

[31] = target: Gal(b1-3)[Fuc(a1-4)]GlcNAc(b1-2)Man(a1-3)[Gal(b1-3)[Fuc(a1-4)]GlcNAc(b1-2)Man(a1-6)]Man(b1-4)GlcNAc(b1-4)GlcNAc
Method in brief: as §1

[32] = target: Gal(b1-3)[Fuc(a1-4)]GlcNAc(b1-2)Man(a1-3)[Gal(b1-3)[Fuc(a1-4)]GlcNAc(b1-2)Man(a1-6)]Man(b1-4)GlcNAc(b1-4)[Fuc(a1-6)]GlcNAc
Method in brief: as §1

[33] = target: Gal(b1-3)[Fuc(a1-4)]GlcNAc(b1-3)Gal(b1-3)[Fuc(a1-4)]GlcNAc
Method in brief: as §1

[34] = target: Gal(b1-3)[Fuc(a1-4)]GlcNAc(b1-3)Gal(b1-4)GlcNAc
Method in brief: as §1

[35] = target: Gal(b1-3)[Fuc(a1-4)]GlcNAc(b1-3)Gal(b1-4)[Fuc(a1-3)]GlcNAc
Method in brief: as §1

[36] = target: Gal(b1-3)[GlcNAc(b1-6)]GalNAc
Method in brief: as §1

[37] = target: Gal(b1-3)[Neu5Ac(a2-6)]GalNAc
Method in brief: as §1

[38] = target: Gal(b1-3)[Neu5Ac(a2-6)]GlcNAc(b1-6)Gal(b1-4)Glc
Method in brief: as §1

[39] = target: Gal(b1-3)[Neu5Ac(b2-6)]GalNAc
Method in brief: as §1

[40] = target: Gal(b1-4)GalNAc(a1-3)[Fuc(a1-2)]Gal(b1-4)GlcNAc
Method in brief: as §1

[41] = target: Gal(b1-4)GalNAc(b1-3)[Fuc(a1-2)]Gal(b1-4)GlcNAc
Method in brief: as §1

[42] = target: Gal(b1-4)Glc
Method in brief: as §1

[43] = target: Gal(b1-4)Glc6S
Method in brief: as §1

[44] = target: Gal(b1-4)GlcNAc
Method in brief: as §1

[45] = target: Gal(b1-4)GlcNAc(a1-6)Gal(b1-4)GlcNAc
Method in brief: as §1

[46] = target: Gal(b1-4)GlcNAc(b1-2)Man(a1-3)Man(b1-4)GlcNAc(b1-4)GlcNAc
Method in brief: as §1

[47] = target: Gal(b1-4)GlcNAc(b1-2)Man(a1-3)[Gal(b1-4)GlcNAc(b1-2)Man(a1-6)]Man(b1-4)GlcNAc(b1-4)GlcNAc
Method in brief: as §1

[48] = target: Gal(b1-4)GlcNAc(b1-2)Man(a1-3)[Gal(b1-4)GlcNAc(b1-2)Man(a1-6)]Man(b1-4)GlcNAc(b1-4)[Fuc(a1-6)]GlcNAc
Method in brief: as §1

[49] = target: Gal(b1-4)GlcNAc(b1-2)Man(a1-3)[Man(a1-6)]Man(b1-4)GlcNAc(b1-4)GlcNAc
Method in brief: as §1

[50] = target: Gal(b1-4)GlcNAc(b1-2)Man(a1-6)Man(b1-4)GlcNAc(b1-4)GlcNAc
Method in brief: as §1

[51] = target: Gal(b1-4)GlcNAc(b1-2)Man(a1-6)[Man(a1-3)]Man(b1-4)GlcNAc(b1-4)GlcNAc
Method in brief: as §1

[52] = target: Gal(b1-4)GlcNAc(b1-2)[Gal(b1-4)GlcNAc(b1-4)]Man(a1-3)[Gal(b1-4)GlcNAc(b1-2)Man(a1-6)]Man(b1-4)GlcNAc(b1-4)GlcNAc
Method in brief: as §1

[53] = target: Gal(b1-4)GlcNAc(b1-3)Gal(b1-3)GlcNAc
Method in brief: as §1

[54] = target: Gal(b1-4)GlcNAc(b1-3)Gal(b1-4)Glc
Method in brief: as §1

[55] = target: Gal(b1-4)GlcNAc(b1-3)Gal(b1-4)GlcNAc
Method in brief: as §1

[56] = target: Gal(b1-4)GlcNAc(b1-3)Gal(b1-4)GlcNAc(b1-3)Gal(b1-4)GlcNAc
Method in brief: as §1

[57] = target: Gal(b1-4)GlcNAc(b1-3)Gal(b1-4)[Fuc(a1-3)]GlcNAc(b1-3)Gal(b1-4)[Fuc(a1-3)]GlcNAc
Method in brief: as §1

[58] = target: Gal(b1-4)GlcNAc(b1-3)GalNAc
Method in brief: as §1

[59] = target: Gal(b1-4)GlcNAc(b1-3)[Gal(b1-4)GlcNAc(b1-6)]Gal(b1-4)GlcNAc
Method in brief: as §1

[60] = target: Gal(b1-4)GlcNAc(b1-3)[GlcNAc(b1-6)]Gal(b1-4)GlcNAc
Method in brief: as §1

B1: Neuropilin-1 (Homo sapiens), O14786 (protein)
chain: FKCMEALGMESGEIHSDQITASSQYSTNWSAERSRLNYPENGWTPGEDSYREWIQVDLGLLRFVTAVGTQGAISKETKKKYYVKTYKIDVSSNGEDWITIKEGNKPVLFQGNTNPTDVVVAVFPKPLITRFVRIKPATWETGISMRFEVYGCKITDYPCSGMLGMVSGLISDSQITSSNQGDRNWMPENIRLVTSRSGWALPPAPHSYINEWLQIDLGEEKIVRGIIIQGGKHRENKVFMRKFKIGYSNNGSDWKMIMDDSKRKAKSFEGNNNYDTPELRTFPALSTRFIRIYPERATHGGLGLRMELLGCEVE
- glycan array binding signal (z-score) [1]: -0.255
- glycan array binding signal (z-score) [2]: -0.296
- glycan array binding signal (z-score) [3]: 0.116
- glycan array binding signal (z-score) [4]: 0.097
- glycan array binding signal (z-score) [5]: -0.27
- glycan array binding signal (z-score) [6]: 3.1
- glycan array binding signal (z-score) [7]: -0.159
- glycan array binding signal (z-score) [8]: -0.225
- glycan array binding signal (z-score) [9]: -0.244
- glycan array binding signal (z-score) [10]: -0.196
- glycan array binding signal (z-score) [11]: -0.226
- glycan array binding signal (z-score) [12]: -0.275
- glycan array binding signal (z-score) [13]: -0.168
- glycan array binding signal (z-score) [14]: -0.245
- glycan array binding signal (z-score) [15]: 0.075
- glycan array binding signal (z-score) [16]: -0.22
- glycan array binding signal (z-score) [17]: 6.05
- glycan array binding signal (z-score) [18]: -0.146
- glycan array binding signal (z-score) [19]: -0.303
- glycan array binding signal (z-score) [20]: -0.28
- glycan array binding signal (z-score) [21]: -0.275
- glycan array binding signal (z-score) [22]: -0.287
- glycan array binding signal (z-score) [23]: -0.3
- glycan array binding signal (z-score) [24]: -0.195
- glycan array binding signal (z-score) [25]: -0.27
- glycan array binding signal (z-score) [26]: -0.201
- glycan array binding signal (z-score) [27]: -0.294
- glycan array binding signal (z-score) [28]: -0.295
- glycan array binding signal (z-score) [29]: -0.248
- glycan array binding signal (z-score) [30]: -0.122
- glycan array binding signal (z-score) [31]: 0.864
- glycan array binding signal (z-score) [32]: -0.016
- glycan array binding signal (z-score) [33]: -0.087
- glycan array binding signal (z-score) [34]: -0.297
- glycan array binding signal (z-score) [35]: -0.27
- glycan array binding signal (z-score) [36]: -0.251
- glycan array binding signal (z-score) [37]: -0.23
- glycan array binding signal (z-score) [38]: -0.277
- glycan array binding signal (z-score) [39]: -0.089
- glycan array binding signal (z-score) [40]: -0.182
- glycan array binding signal (z-score) [41]: -0.281
- glycan array binding signal (z-score) [42]: -0.292
- glycan array binding signal (z-score) [43]: -0.246
- glycan array binding signal (z-score) [44]: -0.285
- glycan array binding signal (z-score) [45]: -0.271
- glycan array binding signal (z-score) [46]: -0.278
- glycan array binding signal (z-score) [47]: -0.291
- glycan array binding signal (z-score) [48]: -0.172
- glycan array binding signal (z-score) [49]: -0.228
- glycan array binding signal (z-score) [50]: -0.183
- glycan array binding signal (z-score) [51]: -0.248
- glycan array binding signal (z-score) [52]: -0.256
- glycan array binding signal (z-score) [53]: -0.313
- glycan array binding signal (z-score) [54]: -0.234
- glycan array binding signal (z-score) [55]: -0.228
- glycan array binding signal (z-score) [56]: -0.212
- glycan array binding signal (z-score) [57]: -0.097
- glycan array binding signal (z-score) [58]: -0.26
- glycan array binding signal (z-score) [59]: -0.239
- glycan array binding signal (z-score) [60]: -0.247
